Reference: PubChem BioAssay AID1345082 (National Center for Advancing Translational Sciences (NCATS), 2018)
In all, about 94,000 compounds went through this assay and about 4,000 (4.3%) were called active. The shares of active, inactive and inconclusive entries below differ from those in the screen. Calls follow the shape of the dose curve; as a rule, active = well fitted inhibition curve with a large enough effect; inconclusive = small, poorly fitted or top-dose-only effect; inactive = no such curve, though single readings can be large or run the other way. Potencies beside an inconclusive call are fits to weak or partial responses and may not hold up.

Assay: Cytotoxic Profiling in NIH 3T3 Cell Line of Diverse Libraries Using Quantitative High-Throughput Screening; also: nearly all actives have a fitted effect of over 55% in size
Conditions: NIH 3T3 viability, CellTiter-Glo ATP luminescence, 48-72 h; series mostly up to 96.7 µM
Procedure, shortened: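 Cytotoxicity was measured by CellTiter-Glo ATP luminescence after 48 or 72 h compound exposure at 37 °C. Mouse NIH 3T3 fibroblasts were seeded at 400 cells/well and dosed by 23 nL pin transfer.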
Potency is read from the fitted curve at half-maximal effect; tags tell the direction and shape of the fitted curve.

| Structure (SMILES) | Potency |
| --- | --- |
| O=[S+]1([O-])NC2(CCN(Cc3ccc(F)cc3)CC2)CNc2ccccc21 | inconclusive: 50.1 µM [inhibitor, partial curve, poor fit] |
| COc1ccc(CN2CCc3nc(C(=O)Nc4cccnc4)oc3CC2)cc1OC | inconclusive: 56.2 µM [inhibitor, partial curve, poor fit] |
| Cc1nncn1C1CCN(S(=O)(=O)c2ccccc2)CC1 | inactive |
| Cc1cccnc1C(=O)N1C[C@@H](COc2ccccc2)[C@H](C(N)=O)C1 | inconclusive: 79.4 µM [inhibitor, partial curve, poor fit] |
| CN(C)c1ccc(CN2CC(N3CCc4ccccc43)C2)cc1 | active: 89.1 µM |
| O=C(c1nc2cccnc2n(C2CCCCC2)c1=O)N1CCN(c2ncccn2)CC1 | inactive |
| CCc1nc2c(c(-c3ccc(Cl)cc3)n1)CN(Cc1ccsc1)CC2 | inconclusive: 50.1 µM [inhibitor, partial curve, poor fit] |
| CCc1ccccc1S(=O)(=O)N(C)CC1CCOCC1 | inactive |
| O=C(NCc1ccccc1F)c1ccc2nc(-c3cccnc3Cl)oc2c1 | inconclusive: 79.4 µM [inhibitor, partial curve] |
| CCc1ccc(N2CC(c3noc(-c4ccc(OC)nc4)n3)CC2=O)cc1 (configuration not stated) | inconclusive: 44.7 µM [inhibitor, partial curve, poor fit] |
| CN1CCNc2nc(COc3ccccc3OC(F)(F)F)n(Cc3ccccc3)c2C1=O | inconclusive: 50.1 µM [inhibitor, single point] |
| O=C(C1CCCN1[S+](=O)([O-])c1ccsc1)N1CCC(c2ccccc2)CC1 (configuration not stated) | inconclusive: 28.2 µM [inhibitor, partial curve, poor fit] |
| COc1ccc(-c2cccc(C(=O)N3CCN(Cc4ccccc4)CC3)c2)nn1 | inconclusive: 56.2 µM [inhibitor, partial curve, poor fit] |
| OC1CCC(NCc2ccc(-c3cnc4c(OCc5ccccc5)nccn34)cc2)CC1 (configuration not stated) | active: 22.4 µM |
| COc1ccc2c(c1)C=C(CN1CCC(CO)(Cc3ccccc3Cl)CC1)CO2 | inconclusive: 79.4 µM [inhibitor, partial curve, poor fit] |
| CN(C)C(=O)N1CCC(C(=O)N2CCC3(CC2)CC(=O)Nc2ccccc2O3)C1 (configuration not stated) | inactive |
| Cc1ccccc1S(=O)(=O)N1CCCC(CCC(=O)NC2CCCCCC2)C1 (configuration not stated) | inconclusive: 50.1 µM [inhibitor, partial curve, poor fit] |
| COCCOc1ccc2c(n1)CCN(C(=O)NCCC(C)C)C2 | inactive |
| N#Cc1ccc(CN2CCC3(CC2)NC(=O)c2ccccc2O3)cc1 | inconclusive: 11.2 µM [inhibitor, full curve] |
| Cc1cccc(CN2CCc3c(n(Cc4cccnc4)n(CCc4ccccc4)c3=O)C2)n1 | inconclusive: 70.8 µM [inhibitor, single point] |
| COc1ccc(C2(C(=O)N3CC(CO)C4(CCNCC4)C3)CC2)cc1 (configuration not stated) | inactive |

| Structure (SMILES) | Potency |
| --- | --- |
| CCC1(N2CCN(S(=O)(=O)c3ccc(F)c(C)c3)CC2)CCN(S(C)(=O)=O)C1 (configuration not stated) | inconclusive: 35.5 µM [inhibitor, partial curve, poor fit] |
| O=c1cc(-c2ccncc2)oc2c(-c3ccccc3F)nccc12 | inconclusive: 15.8 µM [inhibitor, full curve, poor fit] |
| CN1CCN(c2cc(=O)c3ccnc(-c4ccc(F)cc4)c3o2)CC1 | inconclusive: 25.1 µM [inhibitor, partial curve] |
| O=C1NCc2ccccc2CC12CCN(Cc1ccccc1Br)C2 (configuration not stated) | inactive |
| NC(=O)[C@@H]1CN(C(=O)c2cccnn2)C[C@H]1COc1ccccc1 | inactive |
| CN(Cc1ccc(-c2ccccc2)cc1)Cc1ccccn1 | inconclusive: 56.2 µM [inhibitor, partial curve, poor fit] |
| COC1CCN(c2cc(-c3ccccn3)nc3c(C)noc23)CC1 | inconclusive: 39.8 µM [inhibitor, partial curve] |
| O=S(=O)(Cc1ccccc1)N1C[C@@H](F)[C@@H](OCc2nc3ccccc3o2)C1 | inconclusive: 89.1 µM [inhibitor, partial curve, poor fit] |
| CCOC(=O)c1cccc(NC(=O)CCn2ccn3nc4c(c3c2=O)CCCC4)c1 | inconclusive: 50.1 µM [inhibitor, partial curve, poor fit] |
| CCc1noc(-c2cn(C3CCN(C(=O)c4cccc(OC)c4)CC3)nn2)n1 | inactive |
| COc1cncc(N2CC3(COCC(=O)N(Cc4ccccc4)C3)C2)c1 | inconclusive: 56.2 µM [inhibitor, partial curve, poor fit] |
| Cc1ccc(CNC(=O)N2CCCC(Cn3cnc4cccnc43)C2)cc1 (configuration not stated) | inactive |
| COc1ccc(-c2nc3cc(C)ccc3cc2CN2CCCC(OC)C2)cc1 (configuration not stated) | inconclusive: 79.4 µM [inhibitor, partial curve, poor fit] |
| CNC(=O)CCn1ncc2cc(OCc3ccccc3-c3ccc(F)cc3C)ccc21 | active: 50.1 µM |
| COc1ccc2c(C)c(-c3nc(C4CCOC4)no3)oc2c1 (configuration not stated) | inconclusive: 50.1 µM [inhibitor, partial curve, poor fit] |
| O=C(NCc1cccs1)c1ccc2nnc(-c3cccnc3)n2c1 | inactive |
| COCC1(C(=O)N2CCC3(CC2)C(=O)N(C)c2ccccc23)CCC1 | inactive |
| O=C1c2c(nc(CNCc3ccccc3)n2Cc2ccccc2)NCCN1CCOc1ccccc1 | inconclusive: 50.1 µM [inhibitor, partial curve, poor fit] |
| CC1=C[C@@H](CC#N)[C@H](C(C)C)C[C@H]1CC(=O)N1CCN(c2ncccn2)CC1 | inconclusive: 35.5 µM [inhibitor, partial curve, poor fit] |
| COc1cc(OC)c(NC(=O)Cn2ccn3nc4c(c3c2=O)CCCC4)cc1Cl | inconclusive: 12.6 µM [inhibitor, full curve] |
| COc1cccc(CC(=O)NCC2Cn3cccc3CN2Cc2ccccc2)c1 (configuration not stated) | inconclusive: 79.4 µM [inhibitor, single point] |
